Laboratory results taken from the supplement of paper PMC12217912.
The list shows a part of the results. Sequences were assembled here from the parent chain. Values near 0.05 are background.

B1: TEV protease; numbered along this chain (parent)
chain: MGESLFKGPRDYNPISSSICHLTNESDGHTTSLYGIGFGPFIITNKHLFRRNNGTLVVQSLHGVFKVKDTTTLQQHLVDGRDMIIIRMPKDFPPFPQKLKFREPQREERICLVTTNFQTKSMSSMVSDTSCTFPSGDGIFWKHWIQTKDGQCGSPLVSTRDGFIVGIHSASNFTNTNNYFTSVPKNFMELLTNQEAQQWVSGWRLNADSVLWGGHKVFMVKPEEPFQPVKEATQL

Variants of: B1
Assay: raw area under fraction-flipped curve 0-4 h after induction (AUC4h, not background-subtracted), DNA-recorder readout of cleavage of the substrate (dimensionless); higher = more cleavage of the substrate by the protease variant
Conditions: temperature: 34 °C; time window: 0-4 h after rhamnose induction
Procedure: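 In vivo DNA recorder in E. coli TOP10(DE3) ΔrhaA at 34 °C. Each TEVp single-site mutant (parent TEVp 0) is paired with a single-site variant of the 7-mer TEVs (canonical ENLYFQ|S). The substrate sits between flexible linkers in a Bxb1-sfGFP-TEVs-SsrA fusion, so cleavage stabilises Bxb1 and speeds flipping of a recombination array, read by NGS. The value is the raw area under the fraction-flipped curve over 0-4 h after rhamnose induction (AUC4h), with ≥20 reads per time point. It is not background-subtracted; inactive controls average about 0.047.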
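Further: Bxb1 expression induced with 0.2% (w/v) L-rhamnose at OD600 near 0.5, cultures sampled hourly, flipped fraction per protease–substrate barcode pair counted by paired-end Illumina sequencing.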

Variant | area with substrate ENLCFQS | area with substrate ENLFFQS | area with substrate ENLKFQS | area with substrate ENLLFQS | area with substrate ENLPFQS | area with substrate ENLQFQS | area with substrate ENLSFQS | area with substrate ENLWFQS | area with substrate ENLDFQS | area with substrate ENLGFQS | area with substrate ENLIFQS | area with substrate ENLTFQS | area with substrate ENLEFQS | area with substrate ENLHFQS | area with substrate ENLMFQS | area with substrate ENLNFQS | area with substrate ENLRFQS | area with substrate ENLVFQS
MGESLFKGPRDYNPISSSICHLTNESDGHTTSLYGIGFGPFIITNKHLFRRNNGTLVVQSLHGVFKVKDTTTLQQHLVDGRDMIIIRMPKQFPPFPQKLKFREPQREERICLVTTNFQTKSMSSMVSDTSCTFPSGDGIFWKHWIQTKDGQCGSPLVSTRDGFIVGIHSASNFTNTNNYFTSVPKNFMELLTNQEAQQWVSGWRLNADSVLWGGHKVFMVKPEEPFQPVKEATQL [D91Q] | 0.112 | 0.0785 | 0.0656 | 0.0719 | 0.064 | 0.0656 | 0.0557 | 0.0828 | – | – | – | – | – | – | – | – | – | –
MGESLFKGPRDYNPISSSICHLTNESDGHTTSLYGIGFGPFIITNKHLFRRNNGTLVVQSLHGVFKVKDTTTLQQHLVDGRDMIIIRMPKFFPPFPQKLKFREPQREERICLVTTNFQTKSMSSMVSDTSCTFPSGDGIFWKHWIQTKDGQCGSPLVSTRDGFIVGIHSASNFTNTNNYFTSVPKNFMELLTNQEAQQWVSGWRLNADSVLWGGHKVFMVKPEEPFQPVKEATQL [D91F] | 0.0584 | 0.074 | 0.0492 | 0.0717 | – | – | 0.0533 | – | 0.0645 | 0.0519 | 0.0871 | 0.0771 | – | – | – | – | – | –
MGESLFKGPRDYNPISSSICHLTNESDGHTTSLYGIGFGPFIITNKHLFRRNNGTLVVQSLHGVFKVKDTTTLQQHLVDGRDMIIIRMPKDFPPFPQKLIFREPQREERICLVTTNFQTKSMSSMVSDTSCTFPSGDGIFWKHWIQTKDGQCGSPLVSTRDGFIVGIHSASNFTNTNNYFTSVPKNFMELLTNQEAQQWVSGWRLNADSVLWGGHKVFMVKPEEPFQPVKEATQL [K100I] | 0.0885 | 0.0821 | 0.0752 | – | 0.0597 | – | – | – | – | – | 0.0675 | – | 0.0695 | 0.0701 | 0.0668 | 0.0583 | 0.112 | –
MGESLFKGPRDYNPISSSICHLTNESDGHTTSLYGIGFGPFIITNKHLFRRNNGTLVVQSLHGVFKVKDTTTLQQHLVDGRDMIIIRMPKDFPPFPQKLFFREPQREERICLVTTNFQTKSMSSMVSDTSCTFPSGDGIFWKHWIQTKDGQCGSPLVSTRDGFIVGIHSASNFTNTNNYFTSVPKNFMELLTNQEAQQWVSGWRLNADSVLWGGHKVFMVKPEEPFQPVKEATQL [K100F] | 0.0669 | 0.0835 | 0.08 | 0.0653 | – | – | 0.0608 | 0.0648 | 0.0634 | – | 0.0761 | – | 0.0596 | – | – | 0.0643 | 0.0695 | –
MGESLFKGPRDYNPISSSICHLTNESDGHTTSLYGIGFGPFIITNKHLFRRNNGTLVVQSLHGVFKVKDTTTLQQHLVDGRDMIIIRMPKDFPPFPQKLKFREPQREERICRVTTNFQTKSMSSMVSDTSCTFPSGDGIFWKHWIQTKDGQCGSPLVSTRDGFIVGIHSASNFTNTNNYFTSVPKNFMELLTNQEAQQWVSGWRLNADSVLWGGHKVFMVKPEEPFQPVKEATQL [L112R] | 0.0683 | 0.0517 | 0.0788 | – | 0.071 | – | – | 0.0583 | 0.0536 | 0.0679 | 0.0692 | – | 0.0725 | 0.0669 | – | 0.0844 | 0.0722 | –
MGESLFKGPRDYNPISSSICHLTNESDGHTTSLYGIGFGPFIITNKHLFRRNNGTLVVQSLHGVFKVKDTTTLQQHLVDGRDMIIIRMPKDFPPFPQKLKFREPQREERICLVKTNFQTKSMSSMVSDTSCTFPSGDGIFWKHWIQTKDGQCGSPLVSTRDGFIVGIHSASNFTNTNNYFTSVPKNFMELLTNQEAQQWVSGWRLNADSVLWGGHKVFMVKPEEPFQPVKEATQL [T114K] | 0.0932 | – | 0.0859 | 0.0658 | – | – | – | – | – | – | 0.118 | – | – | 0.0783 | – | 0.0794 | 0.083 | –
MGESLFKGPRDYNPISSSICHLTNESDGHTTSLYGIGFGPFIITNKHLFRRNNGTLVVQSLHGVFKVKDTTTLQQHLVDGRDMIIIRMPKDFPPFPQKLKFREPQREERICLVTTNFQTKSMSSMVMDTSCTFPSGDGIFWKHWIQTKDGQCGSPLVSTRDGFIVGIHSASNFTNTNNYFTSVPKNFMELLTNQEAQQWVSGWRLNADSVLWGGHKVFMVKPEEPFQPVKEATQL [S127M] | 0.0706 | 0.0895 | 0.0923 | 0.068 | 0.0716 | – | 0.0599 | 0.0707 | 0.0494 | 0.0766 | 0.0782 | – | 0.0608 | 0.0611 | 0.0705 | 0.0614 | 0.0995 | 0.105
MGESLFKGPRDYNPISSSICHLTNESDGHTTSLYGIGFGPFIITNKHLFRRNNGTLVVQSLHGVFKVKDTTTLQQHLVDGRDMIIIRMPKDFPPFPQKLKFREPQREEEICLVTTNFQTKSMSSMVSDTSCTFPSGDGIFWKHWIQTKDGQCGSPLVSTRDGFIVGIHSASNFTNTNNYFTSVPKNFMELLTNQEAQQWVSGWRLNADSVLWGGHKVFMVKPEEPFQPVKEATQL [R109E] | 0.0725 | 0.0671 | 0.0776 | – | 0.0669 | 0.0666 | 0.0567 | 0.025 | 0.0623 | – | – | – | 0.0695 | – | 0.0723 | 0.0679 | 0.075 | –
MGESLFKGPRDYNPISSSICHLTNESDGHTTSLYGIGFGPFIITNKHLFRRNNGTLVVQSLHGVFKVKDTTTLQQHLVDGRDMIIIRMHKDFPPFPQKLKFREPQREERICLVTTNFQTKSMSSMVSDTSCTFPSGDGIFWKHWIQTKDGQCGSPLVSTRDGFIVGIHSASNFTNTNNYFTSVPKNFMELLTNQEAQQWVSGWRLNADSVLWGGHKVFMVKPEEPFQPVKEATQL [P89H] | 0.0539 | 0.0889 | – | 0.0943 | 0.0559 | 0.0559 | 0.0413 | 0.0468 | 0.0542 | – | – | – | – | 0.0557 | – | 0.0619 | 0.0772 | –
MGESLFKGPRDYNPISSSICHLTNESDGHTTSLYGIGFGPFIITNKHLFRRNNGTLVVQSLHGVFKVKDTTTLQQHLVHGRDMIIIRMPKDFPPFPQKLKFREPQREERICLVTTNFQTKSMSSMVSDTSCTFPSGDGIFWKHWIQTKDGQCGSPLVSTRDGFIVGIHSASNFTNTNNYFTSVPKNFMELLTNQEAQQWVSGWRLNADSVLWGGHKVFMVKPEEPFQPVKEATQL [D79H] | 0.0642 | 0.0896 | 0.0615 | 0.112 | 0.038 | – | 0.0748 | – | 0.0887 | – | – | – | – | – | 0.0808 | 0.0639 | – | 0.13
